PubChem BioAssay AID624417 (National Center for Advancing Translational Sciences (NCATS), 2012)
The campaign covered roughly 410,000 compounds. About 6,400 (1.6%) were called active. The shares of active, inactive and inconclusive entries below differ from those in the screen. Calls come from the whole dose curve; as a rule, active = well fitted inhibition curve with a large enough effect; inconclusive = small, poorly fitted or top-dose-only effect; inactive = no such curve, though single readings can be large or run the other way. Potencies of inconclusive entries are left out as doubtful fits.

Target: Glucagon-like peptide 1 receptor (Homo sapiens) (UniProt P43220)
UniProt P43220, sequence (P43220 whole entry, looked up): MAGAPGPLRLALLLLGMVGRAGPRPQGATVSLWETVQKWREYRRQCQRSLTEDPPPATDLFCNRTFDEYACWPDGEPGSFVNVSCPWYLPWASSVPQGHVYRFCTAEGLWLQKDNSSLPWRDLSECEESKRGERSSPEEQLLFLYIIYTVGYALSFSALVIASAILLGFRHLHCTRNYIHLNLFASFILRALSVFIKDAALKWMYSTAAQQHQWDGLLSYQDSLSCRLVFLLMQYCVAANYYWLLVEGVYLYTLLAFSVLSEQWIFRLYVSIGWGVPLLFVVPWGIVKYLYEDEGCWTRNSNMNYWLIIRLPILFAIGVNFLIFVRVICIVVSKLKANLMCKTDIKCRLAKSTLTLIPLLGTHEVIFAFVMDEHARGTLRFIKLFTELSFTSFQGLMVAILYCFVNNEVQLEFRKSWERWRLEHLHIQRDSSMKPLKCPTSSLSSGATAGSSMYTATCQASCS
Test: qHTS of GLP-1 Receptor Inverse Agonists (Inhibition Mode); note: nearly all actives have a fitted effect of over 55% in size
Conditions: HEK293 GLP-1R CRE-luciferase, luminescence, 24 h, GLP-1R form is constitutively active; series mostly up to 38.3 µM
Summary of the method: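 Assay principle: reduced luminescence from a cAMP-responsive reporter in HEK293 cells co-expressing a constitutively active GLP-1R. Conditions: 24 hr compound incubation, 37 deg C, 5% CO2.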
Potency is the fitted concentration of half-maximal effect; tags give direction and shape of the fitted curve.

SMILES	Potency
COc1ccc(-c2nc3ccccc3o2)cc1NC(=O)c1cccc2c(Cl)cccc12	inactive
COc1ccc(NC(=O)COc2ccccc2C(=O)NCC(c2ccccc2)N(C)C)cc1Cl (stereo unspecified)	inconclusive [inhibitor, single point]
Cc1ccc(S(=O)(=O)N2CCN(C(=O)c3ccccc3Cc3ccccc3)CC2)c(C)c1	inconclusive [inhibitor, partial curve, poor fit]
CCCN1C(=O)c2ccccc2NC1c1ccc(OC)cc1O (stereo unspecified)	inconclusive [inhibitor, full curve, poor fit]
O=S(Cc1ccc(Br)cc1)Cc1nnc(SCc2ccc(Cl)cc2)n1-c1ccccc1 (stereo unspecified)	inconclusive [inhibitor, partial curve, poor fit]
Cc1c(Cl)cccc1NC(=S)N(CCCN1CCOCC1)Cc1ccco1	inconclusive [inhibitor, single point]
Cc1ccccc1-n1c(SCC(=O)Nc2cccc3ccccc23)nc(O)cc1=O	inconclusive [inhibitor, partial curve]
Cc1ccc(NC(=O)c2ccc3c(c2)OCCO3)nc1	inconclusive [inhibitor, partial curve, poor fit]
COc1ccc(C(=O)N2CCN(Cc3ccccc3C(F)(F)F)CC2)cc1	inconclusive [inhibitor, partial curve, poor fit]
Cc1cccc(OCCCC(=O)O)c1C	inactive
COc1ccc(CNc2nc(NCc3ccc(OC)cc3)c3ncn(C4CCCC4)c3n2)cc1	inconclusive [inhibitor, full curve, poor fit]
Cc1cc(C)nc(OC(C(=O)O)C(OCc2ccccc2)(c2ccccc2)c2ccccc2)n1 (stereo unspecified)	inconclusive [inhibitor, partial curve]
CCCN(Cc1cccs1)C(=O)Nc1cc(C)cc(C)c1	inconclusive [inhibitor, single point]
O=C(c1cccc(S(=O)(=O)NCc2ccccc2)c1)N1CCN(c2ccc(F)cc2)CC1	inconclusive [inhibitor, partial curve, poor fit]
COc1cc2ccccc2cc1C(=O)N1CC(C)CC(C)C1 (stereo unspecified)	inconclusive [inhibitor, single point]
Cc1ccccc1SCC(=O)N/N=C/c1ccc(F)cc1	inconclusive [inhibitor, single point]
COc1cc(/C=C2\SC(=S)N(Nc3ccccc3)C2=O)cc(OC)c1OC	inconclusive [inhibitor, partial curve, poor fit]
NC(=S)N/N=C\c1ccc(-c2cccc(Cl)c2Cl)o1	inconclusive [inhibitor, partial curve, poor fit]
N#Cc1ccccc1S(=O)(=O)N1CCN(C(=O)C2COc3ccccc3O2)CC1 (stereo unspecified)	inactive
CCN(CC(=O)Nc1cc(Cl)ccc1C)C(=O)C1CCN(c2ncnc3sc(C)c(C)c23)CC1	inconclusive [inhibitor, partial curve, poor fit]
C(=N\Nc1nc(Nc2ccccc2)nc(N2CCOCC2)n1)/c1c[nH]c2ccccc12	inconclusive [inhibitor, full curve, poor fit]

SMILES	Potency
O=C(c1cccc(Cl)c1)N1CCC(=O)N([C@H](COCc2cccc(Cl)c2)Cc2ccccc2)CC1	inconclusive [inhibitor, partial curve]
CC(C)C[C@@H](C(=O)NCc1ccco1)N1C(=O)N2CCc3c([nH]c4ccccc34)[C@@]2(C)C1=O	active: 10 µM
CN(Cc1ccccc1F)C(=O)c1ccc(Oc2ccccc2)cc1	inconclusive [inhibitor, partial curve, poor fit]
C=CCC[C@@H](CCCCC)OC(=O)/C=C/[C@H](O)[C@@H](O)C[C@H](O)CC=C	inconclusive [inhibitor, single point]
O=C(CSc1nnnn1-c1ccccc1)CC(=O)Nc1ccc(Cl)cc1	inconclusive [inhibitor, single point]
CCOc1ccc(NC(=O)c2cnn(-c3ccccc3)c2-n2cccc2)cc1	inconclusive [inhibitor, partial curve, poor fit]
CCCc1c(O)nc(SCC(=O)NCc2ccco2)[nH]c1=O	inactive
CCC(CC)C(=O)N1N=C(c2ccc(NS(C)(=O)=O)cc2)CC1c1ccc(C)cc1 (stereo unspecified)	active: 8.91 µM
Cc1cccc(C)c1NC(=O)C(c1ccc(C(F)(F)F)cc1)n1c(=O)c(-c2cc3ccccc3[nH]2)nc2ccccc21 (stereo unspecified)	inconclusive [inhibitor, partial curve, poor fit]
Cc1ccccc1Nc1nc(N)c2ccccc2n1	inconclusive [inhibitor, single point]
O=C(CCc1ccccc1)N(Cc1cccnc1)c1nc2ccc(F)cc2s1	inconclusive [inhibitor, single point]
COc1ccc(-c2ccc(CNCCCN3CCOCC3)o2)cc1Cl	inconclusive [inhibitor, partial curve, poor fit]
N#Cc1c(-c2ccccc2)ccn(Cc2cccc(Cl)c2)c1=O	inconclusive [inhibitor, single point]
COc1ccc(NC(=O)C(NC(=O)c2ccc(C)cc2)c2ccccc2)cc1 (stereo unspecified)	inconclusive [inhibitor, single point]
COc1ccc(/C=C2/SC(=S)N(CCCC(=O)Nc3cccc(O)c3)C2=O)cc1	inconclusive [inhibitor, partial curve, poor fit]
CCCCNc1c(-c2ccc(F)cc2)nc2nc(C)cc(C)n12	inconclusive [inhibitor, single point]
Cc1cc(C)cc(N(C(=O)c2ccc(Br)o2)C2C=CS(=O)(=O)C2)c1 (stereo unspecified)	inactive
O=C(Cn1cc(SCc2ccc(F)cc2)c2ccccc21)N1CCCCCC1	inconclusive [inhibitor, partial curve, poor fit]
CCCCNC(=O)c1onc(CSc2ccc(F)cc2)c1C(=O)NCCCC	inconclusive [inhibitor, single point]
N#Cc1c(-c2ccccc2)cc(-c2ccccc2)nc1SCC(O)CS(=O)(=O)Cc1ccccc1 (stereo unspecified)	inconclusive [inhibitor, partial curve, poor fit]
Cc1cccc(NC(=O)CSc2nccn2Cc2ccco2)c1	inconclusive [inhibitor, single point]

SMILES	Potency
Nc1nccc(NCCSCc2ccccc2)n1	inconclusive [inhibitor, single point]
CCOc1ccc(C(c2c(NC(=O)c3ccccc3)sc(C)c2C)N2CCN(C)CC2)cc1 (stereo unspecified)	inconclusive [inhibitor, single point]
Cc1ccccc1Cn1nnc2c(=O)[nH]c(C3CCCN(C(=O)c4ccc(C(C)(C)C)cc4)C3)nc21 (stereo unspecified)	inconclusive [inhibitor, single point]
Cc1ccc(NC(=O)CN(C)C(=O)C(Sc2ccccc2)c2ccccc2)cc1 (stereo unspecified)	active: 8.91 µM
CCOc1ccc2nc(NC(=O)CSc3nc4ccccc4c(=O)n3Cc3ccco3)sc2c1	inconclusive [inhibitor, partial curve, poor fit]
CCOC(=O)C1CCCN(C(=O)c2ccccc2NC(=O)c2nsc3ccccc23)C1 (stereo unspecified)	inactive
CCCCCCCC(=O)N/N=C/c1ccc([N+](=O)[O-])o1	inconclusive [inhibitor, single point]
CN(C)C(=O)CCc1ccc2c3c([nH]c2c1)[C@]1(CCC2CCCC2)[C@@H](C(=O)N2CCOCC2)C[C@H](CC(=O)NCCC2=CCCCC2)C(=O)N1CC3	inconclusive [inhibitor, single point]
COc1ccc(OCCSc2nnc(CCNC(=O)c3ccc(Cl)c(Cl)c3)n2C)cc1	active: 10 µM
Cc1ccccc1C1c2[nH]c3ccccc3c2CCN1C(=O)c1ccc(=O)n(C)n1 (stereo unspecified)	inconclusive [inhibitor, partial curve, poor fit]
C=C(C)COc1ccc(-c2ncnc(C(F)(F)F)c2-c2ccccc2)c(O)c1	active: 2.82 µM
COc1ccc(S(=O)(=O)NCC2CCCN(Cc3ccccc3C)C2)cc1 (stereo unspecified)	inconclusive [inhibitor, single point]
CCC(=O)C1CCCN(C(=O)CCc2nnc(-c3ccc(C(C)=O)s3)o2)C1 (stereo unspecified)	inactive
CCC(C)(C)c1ccc(OCCCC[n+]2cccc(C)c2)c(C(C)(C)CC)c1	active: 10 µM
COc1ccc(S(=O)(=O)N2CCC(O)(c3ccc(Cl)cc3)CC2)cc1	inconclusive [inhibitor, single point]
COc1cc(C(=O)Nc2ccccc2N2CCCCC2)cc(OC)c1OC	inconclusive [inhibitor, partial curve, poor fit]
O=S(=O)(c1cccs1)N1CCN(CC(O)COC2CCCc3ccccc32)CC1 (stereo unspecified)	inconclusive [inhibitor, single point]
COc1ccc(OC)c(CCNC(=O)c2cnn(-c3ccccc3)c2-n2cccc2)c1	inconclusive [inhibitor, single point]
CCCCCCC(=O)N/N=C/c1ccc(Br)cc1	inconclusive [inhibitor, single point]
